By IC50 is meant the dose at which the fit gives 50% viability; where the fit passes the top or lowest dose, that dose stands as a limit. AUC is the area under the same curve over the 256-fold range up to the top dose, as a fraction; it is 1 without any effect and falls as sensitivity rises. The top dose, if marked as inferred, was derived from the fitted curves, not read from the paper.

Compound in this experiment: CC1=C(C(=O)Nc2cc3cn[nH]c3cc2F)C(c2ccc(C(F)(F)F)cc2)CC(=O)N1 [GSK429286A]
Description: Viability of human cancer cell lines after 72 h of drug (GDSC screen). The note with it: top dose inferred. The method, then: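 Human cancer cell lines in 384-well plates, medium with 10% serum, drug for 72 h over a 256-fold dose range (nine 2-fold or five 4-fold steps up to the top dose). Adherent lines were fixed and stained with the nucleic acid dye Syto60, suspension lines read with resazurin; signal relative to control wells, capped at 0 and 100%. One two-parameter sigmoid per drug and line, fitted in a mixed model over all curves with the slope shared within a line.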
A word on the IC50: it is the midpoint of a concentration-inhibition curve. Consider “DK-MG (glioma, adherent, top dose 20 µM)”, for which the AUC came out at 0.956 and the half-inhibitory concentration (IC50) is > 20 µM.
Regarding “DMS-53 (small cell lung carcinoma, adherent, top dose 20 µM)”, the AUC is 0.988 and the 50% inhibitory concentration (IC50) is > 20 µM.
For “DMS-79 (small cell lung carcinoma, suspension, top dose 20 µM)”, in that order: 0.977 and > 20 µM.
The matching figures for “DMS-114 (small cell lung carcinoma, adherent, top dose 20 µM)”: 0.98 and > 20 µM.
For “DMS-273 (small cell lung carcinoma, adherent, top dose 20 µM)”, in that order: 0.984 and > 20 µM.
Consider “DND-41 (T-cell leukaemia, suspension, top dose 20 µM)”, for which the AUC worked out at 0.905 and the IC50 is > 20 µM.
As to “DOK (head and neck, adherent, top dose 20 µM)”, the AUC was found to be 0.976 and the IC50 was > 20 µM.
The matching figures for DOV13 (ovary, adherent, top dose 20 µM): 0.983 and > 20 µM.
For “DSH1 (bladder, adherent, top dose 20 µM)”, in that order: 0.988 and > 20 µM.
The matching figures for “DU-145 (prostate, adherent, top dose 20 µM)”: 0.98 and > 20 µM.
With “DU-4475 (breast, suspension, top dose 20 µM)”, the AUC amounted to 0.923 and the IC50 is > 20 µM.
The matching figures for “Daoy (medulloblastoma, adherent, top dose 20 µM)”: 0.971 and > 20 µM.
The matching figures for “Daudi (Burkitt lymphoma, suspension, top dose 20 µM)”: 0.953 and > 20 µM.
For “Detroit562 (head and neck, adherent, top dose 20 µM)”, in that order: 0.969 and > 20 µM.
Take “DoTc2-4510 (cervix, adherent, top dose 20 µM)”: the AUC was 0.981 and the IC50 is > 20 µM.
The matching figures for “EB2 (Burkitt lymphoma, suspension, top dose 20 µM)”: 0.957 and > 20 µM.
For “EB-3 (Burkitt lymphoma, suspension, top dose 20 µM)”, in that order: 0.957 and > 20 µM.
Turning to “EBC-1 (lung squamous cell carcinoma, adherent, top dose 20 µM)”, the AUC was 0.97 and the IC50 is > 20 µM.
For “EC-GI-10 (oesophagus, adherent, top dose 20 µM)”, in that order: 0.989 and > 20 µM.
Take “ECC10 (stomach, suspension, top dose 20 µM)”: the AUC worked out at 0.957 and the 50% inhibitory concentration (IC50) was > 20 µM.
For “EFM-19 (breast, adherent, top dose 20 µM)”, in that order: 0.972 and > 20 µM.
The matching figures for “EFM-192A (breast, adherent, top dose 20 µM)”: 0.986 and > 20 µM.
For “EFO-21 (ovary, adherent, top dose 20 µM)”, in that order: 0.98 and > 20 µM.
For “EFO-27 (ovary, adherent, top dose 20 µM)”, the AUC worked out at 0.97 and the IC50 is > 20 µM.
For “EGI-1 (biliary tract, adherent, top dose 20 µM)”, in that order: 0.982 and > 20 µM.
The matching figures for “EJM (lymphoid neoplasm, semi-adherent, top dose 20 µM)”: 0.966 and > 20 µM.
The matching figures for “EKVX (lung adenocarcinoma, adherent, top dose 20 µM)”: 0.965 and > 20 µM.
On to “EM-2 (chronic myeloid leukaemia, suspension, top dose 20 µM)”, for which the AUC turned out to be 0.755 and the IC50 was found to be 7.58 µM.
The matching figures for “EMC-BAC-1 (lung adenocarcinoma, adherent, top dose 20 µM)”: 0.94 and > 20 µM.
For “EMC-BAC-2 (lung adenocarcinoma, adherent, top dose 20 µM)”, in that order: 0.947 and > 20 µM.
Take “EN (endometrium, adherent, top dose 20 µM)”: the AUC is 0.926 and the IC50 is > 20 µM.
For “EPLC-272H (lung squamous cell carcinoma, adherent, top dose 20 µM)”, in that order: 0.953 and > 20 µM.
For “ES1 (Ewing sarcoma, adherent, top dose 20 µM)”, in that order: 0.953 and > 20 µM.
The matching figures for “ES3 (Ewing sarcoma, adherent, top dose 20 µM)”: 0.943 and > 20 µM.
With “ES4 (Ewing sarcoma, adherent, top dose 20 µM)”, the AUC was 0.974 and the IC50 was > 20 µM.
Take “ES5 (Ewing sarcoma, adherent, top dose 20 µM)”: the AUC was found to be 0.923 and the IC50 was > 20 µM.
On to “ES6 (Ewing sarcoma, adherent, top dose 20 µM)”, for which the AUC was 0.92 and the IC50 is > 20 µM.
Consider “ES7 (Ewing sarcoma, adherent, top dose 20 µM)”, for which the AUC was determined as 0.829 and the IC50 worked out at 12.9 µM.
For “ES8 (Ewing sarcoma, adherent, top dose 20 µM)”, in that order: 0.9 and > 20 µM.
As for ES-2 (ovary, adherent, top dose 20 µM), the AUC was 0.987 and the half-inhibitory concentration (IC50) was > 20 µM.
The matching figures for “ESO26 (oesophagus, adherent, top dose 20 µM)”: 0.936 and > 20 µM.
In the case of “ESO51 (oesophagus, semi-adherent, top dose 20 µM)”, the AUC is 0.974 and the IC50 was > 20 µM.
The matching figures for “ESS-1 (endometrium, adherent, top dose 20 µM)”: 0.931 and > 20 µM.
For “ETK-1 (biliary tract, adherent, top dose 20 µM)”, in that order: 0.983 and > 20 µM.
As to “EVSA-T (breast, adherent, top dose 20 µM)”, the AUC amounted to 0.991 and the IC50 was > 20 µM.
For “EW-1 (Ewing sarcoma, semi-adherent, top dose 20 µM)”, in that order: 0.976 and > 20 µM.
For “EW-3 (Ewing sarcoma, adherent, top dose 20 µM)”, in that order: 0.977 and > 20 µM.
For “EW-7 (Ewing sarcoma, semi-adherent, top dose 20 µM)”, in that order: 0.932 and > 20 µM.
As for “EW-11 (Ewing sarcoma, adherent, top dose 20 µM)”, the AUC worked out at 0.949 and the half-maximal inhibitory concentration (IC50) is > 20 µM.
Regarding “EW-13 (Ewing sarcoma, suspension, top dose 20 µM)”, the AUC worked out at 0.829 and the IC50 is 14.3 µM.
As for “EW-16 (Ewing sarcoma, adherent, top dose 20 µM)”, the AUC was determined as 0.968 and the 50% inhibitory concentration (IC50) is > 20 µM.
The matching figures for “EW-18 (Ewing sarcoma, suspension, top dose 20 µM)”: 0.896 and > 20 µM.
The matching figures for “EW-24 (Ewing sarcoma, semi-adherent, top dose 20 µM)”: 0.993 and > 20 µM.
The matching figures for “EoL-1-cell (haematopoietic neoplasm, suspension, top dose 20 µM)”: 0.95 and > 20 µM.
Turning to “FADU (head and neck, adherent, top dose 20 µM)”, the AUC stood at 0.984 and the IC50 is > 20 µM.
In the case of “FLO-1 (oesophagus, adherent, top dose 20 µM)”, the AUC came to 0.934 and the IC50 was > 20 µM.
Consider “FTC-133 (thyroid, adherent, top dose 20 µM)”, for which the AUC worked out at 0.985 and the IC50 was > 20 µM.
For “FU97 (stomach, adherent, top dose 20 µM)”, in that order: 0.986 and > 20 µM.
As for “FU-OV-1 (ovary, adherent, top dose 20 µM)”, the AUC is 0.982 and the IC50 is > 20 µM.
The matching figures for “Farage (B-cell lymphoma, suspension, top dose 20 µM)”: 0.935 and > 20 µM.
The matching figures for “G-292 Clone A141B1 (osteosarcoma, adherent, top dose 20 µM)”: 0.957 and > 20 µM.
With “G-361 (melanoma, adherent, top dose 20 µM)”, the AUC turned out to be 0.965 and the IC50 is > 20 µM.
On to “G-401 (kidney, adherent, top dose 20 µM)”, for which the AUC was 0.899 and the concentration for half-maximal inhibition (IC50) was > 20 µM.
Take “G-402 (soft tissue, adherent, top dose 20 µM)”: the AUC stood at 0.906 and the IC50 was > 20 µM.
The matching figures for “G-MEL (melanoma, adherent, top dose 20 µM)”: 0.954 and > 20 µM.
The matching figures for “GAK (melanoma, adherent, top dose 20 µM)”: 0.985 and > 20 µM.
For GAMG (glioma, adherent, top dose 20 µM), in that order: 0.965 and > 20 µM.

Values taken from the supplement of paper PMC4967469.
